Among all 48,000 compounds or so, about 120 (0.25%) were called active. Inconclusive results (about 4%) are left out. Calls come from the whole dose curve; as a rule, active = well fitted activation curve with a large enough effect; inconclusive = small, poorly fitted or top-dose-only effect, or another doubt; inactive = no such curve, though single readings can be large or run the other way. The list shows a part of the results.
Experiment: Primary qHTS for Identification of Small Molecule Activators of Huntingtin-Antisense Promoter Activity; note: nearly all actives have a fitted effect of over 55% in size
Conditions: HEK293 HTT-AS promoter firefly luciferase reporter, 24 h; series mostly up to 57.5 µM; activity change, positive = activation: at the top concentration
Method in brief: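 Firefly luciferase signal from promoter-reporter HEK293 cells was scaled between vehicle (0%) and zero RLU (-100%). Compounds were tested at final concentrations of up to 57.5 uM over 24 h at 37 degrees C. PTC124 at 50 uM final served as control inhibitor.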

Activity change, positive = activation, inactive:
COC(=O)c1c(Oc2ccc(Br)cc2)nnc(-c2ccccc2)c1-c1ccccc1 -11.7%
Cc1ccc(CN2CCC(CNC(=O)Nc3cccc(C)c3C)C2)cc1 (centres undefined) -9%
CCc1nc2nc(C)cc(Nc3ccc(F)c(Cl)c3)n2n1 -28.6%
Cc1cccc(C(=O)Nc2ccccc2OCc2cc(=O)n3cc(C)ccc3n2)c1 -3.11%
CC(=O)N1CCCc2cc(S(=O)(=O)N3CCCC(C(=O)Nc4ccc(C)c(F)c4)C3)ccc21 (centres undefined) -35.8%
COc1ccccc1-c1c(C)nn2c(N3CCN(c4ccc(F)cc4)CC3)cc(C)nc12 -8.53%
CCN(CC)CCCNc1oc(-c2ccc(OC)cc2)nc1C#N -10.3%
CC(Oc1ccc(O)cc1)(P(=O)(O)O)P(=O)(O)O -13.1%
CC(C)n1c(=O)c2oc3ccccc3c2n(CC(=O)Nc2ccccc2Cl)c1=O -8.91%
CCOC(=O)c1c(C)[nH]c(C)c1S(=O)(=O)N(C)CC(=O)Nc1ccc(C)c(F)c1 -4.13%
CC(=O)Nc1ccc2nc(SCCOc3ccccc3Cl)sc2c1 -5.43%
CCCCN(c1ccccc1)c1ncnc2c1cnn2-c1cccc(C)c1 20.6%
COC(=O)c1cc2sccc2n1Cc1nc(-c2ccc(C)cc2)oc1C -15.8%
Cc1cc(C)c(NC(=O)C2CCCN(C(=O)c3cnn(-c4ccccc4)c3-n3cccc3)C2)c(C)c1 (centres undefined) -29.6%
CCc1ccccc1NC(=O)c1ccc2c(c1)c(C)c(C)n2Cc1ccccc1 -14.9%
CN(C(=O)CSc1nc2ccccc2n1CC(=O)N(C)C1CCCCC1)c1ccc(F)cc1 -13.1%
O=C(COc1ccc(Br)cc1)Nc1ccc(C(=O)OC2CCCCC2)cc1 7.23%
CCOc1ccc(NC(=O)Cn2c(=O)n(-c3ccccc3)c(=O)c3c4c(sc32)CCCC4)cc1 -4.16%
COc1ccc(NC(=O)CCc2c(C)nc3cc(-c4cccc(F)c4)nn3c2C)cc1Cl -66%
CCc1nnc2c3ccccc3nc(N3CCN(c4cc(Cl)ccc4C)CC3)n12 -13.5% [at 11.5 µM, percent change from vehicle, -100% = no light]
CCc1ccc(-c2[nH]c3c(c2-c2c(-n4cccc4)n(C)c(=O)[nH]c2=O)c(=O)[nH]c(=O)n3C)cc1 -3.02%
O=C(Nc1nnc(S(=O)(=O)N2CCCCC2)s1)c1ccc(Cl)cc1 -17%
O=C1NC(=O)C(c2ccccc2[N+](=O)[O-])=C1Nc1ccc(O)c(Cl)c1 -28.2%
CC(=O)Nc1ccc(NS(=O)(=O)c2ccc3c(c2)CCCN3C(C)=O)cc1 -7.67%
COc1ccc(-n2ncc(C(=O)Nc3ccc(C)cc3Cl)c2C2CCN(C(=O)OC(C)(C)C)CC2)cc1 -27.2%
O=S(=O)(NCCc1csc(-c2ccc(F)cc2)n1)c1ccc(F)cc1F -43.9%
COc1ccc(N2CC(NC(=O)c3cccs3)CC2=O)cc1OC (centres undefined) -19.7%
O=C(Nc1ccc(F)cc1)c1ccc(-n2cnnc2)cc1 -12.3%
CCOC(=O)c1cc(-c2ccc(C)cc2)n(CCC(=O)NCc2ccccc2)c1C -28.5%
Cc1ccc(-c2nc3scc(CCNS(=O)(=O)c4ccc(C)c(C)c4)n3n2)cc1 -20.1%
Cc1cccc(OCC(=O)Nc2ccc(C(=O)OCc3cc(=O)n4nc(C5CC5)sc4n3)cc2)c1 -0.419%
COC(=O)c1ccc(NC(=O)CSc2ccc(-c3cccs3)nn2)cc1 -7.74%
CCc1ccc(NC(=O)C(Cc2ccccc2)NS(=O)(=O)c2ccc3c(c2)CCN3C(C)=O)cc1 (centres undefined) -19.9%
Cc1cc(C)c(NC(=O)c2cc(CN3CCOCC3)on2)c(C)c1 -10.1%
COc1ccc2cc(S(=O)(=O)c3ccccc3F)c(=O)oc2c1 -60.9%
CCCc1ncc(C[n+]2ccccc2C)c(N)n1 -7.27%
C#CCOc1ccc(C2C(C(=O)OC)=C(C)NC3=C2C(=O)c2ccccc23)cc1OCC (centres undefined) -26.8%
CCOc1ccc(Sc2cc(C(=O)NCCCOC)c3ccccc3n2)cc1 -24.9%
CCN(CC)CCNC(=O)C1CCCN(c2nnc(C)c3c(C)n(-c4ccc(Cl)cc4)nc23)C1 (centres undefined) -23%
CCOc1ccc(NC(=O)CSc2nnc(CC)c(CC)n2)cc1 -4.96%
CCOc1ccc(-c2cn3c(n2)sc2cc(C(=O)NCCC4=CCCCC4)ccc23)cc1 6.02%
Cc1cccc(C)c1NC(=O)C1CCCN(S(=O)(=O)c2c(C)noc2/C=C/N(C)C)C1 (centres undefined) -12.1%
COc1ccccc1CNC(=O)c1ccc(NC(=O)N2CC(C)Sc3ccccc32)cc1 (centres undefined) -16.8%
COc1ccc(S(=O)(=O)NCC(c2ccco2)S(=O)(=O)c2ccc(C)cc2)cc1C (centres undefined) -17.4%
Cc1ccc(-c2cc(C(=O)Oc3ccccc3)c3cccc(C)c3n2)cc1 -14.3%
Cc1sc(-c2cc3ccccc3oc2=O)nc1-c1ccc(Cl)cc1 24.2%
COC(=O)c1cc(S(=O)(=O)N2CCN(c3ccc(C)cc3C)CC2)cn1C -10.5%
O=C1CC(c2ccccc2)Cc2[nH]c(=O)c(-c3nc(-c4ccc(F)cc4)cs3)cc21 (centres undefined) -18.4%
CC(C)Oc1ccc(CNC(=O)C2COc3ccccc3C2)cc1 (centres undefined) 14.6%
O=C(CN1C(=O)COc2ccc(S(=O)(=O)N3CCCC3)cc21)N1CCN(c2ccccc2F)CC1 -12.4%
Cc1ccccc1-c1nc(CS(=O)CC(=O)NCCc2ccc(Cl)cc2)c(C)o1 (centres undefined) -24.5%
CCOC(=O)c1cnc2ccc(OCC)cc2c1N1CCN(c2cccc(Cl)c2)CC1 -27.3%
O=C1CN(C(=O)C2CCCCC2)C(c2ccccc2)c2cc(F)ccc2N1 (centres undefined) -4.44%
CCOc1ccc(C2c3c(oc4ccc(C)cc4c3=O)C(=O)N2c2nc(C)c(C)s2)cc1OC (centres undefined) -4.39%
COc1ccc(-c2noc(-c3ccc(N4CCCCC4)c([N+](=O)[O-])c3)n2)cc1 -11%
CCCCCCOc1ccc(-c2nc3ccc(Br)cc3c(=O)o2)cc1 -4.04%
COC(=O)c1ccccc1NC(=O)Nc1cccc(OCc2cc(=O)n3cccc(C)c3n2)c1 -14.5%
CN1CCN(C(=O)c2cnn(-c3cccc(F)c3)c2C2CCN(C(=O)OC(C)(C)C)CC2)CC1 0.0086%
Cc1ccc(C)c(CSc2c(C(C)C)cnc3c2c(=O)n(C)c(=O)n3C)c1 -30.9%
Cc1csc2nc(COc3ccc(NC(=O)COc4ccc(F)cc4)cc3)cc(=O)n12 -1.39%
COc1ccc(N2CCN(C(CNC(=O)c3ccc(C)cc3)c3ccc4c(c3)OCO4)CC2)cc1 (centres undefined) -32.3%
Cc1cc2c(cc1NC(=O)c1ccc(C(C)(C)C)cc1)n(C)c(=O)c(=O)n2C -20.5%
CCOc1ccccc1CNC(=O)c1nn(C)c2c1CS(=O)(=O)c1ccccc1-2 -23%
COc1ccc(Cl)cc1NC(=O)CSc1nnc(C)n2c1cc1occc12 -6.41%
Cc1ccc(CCNC(=O)CN2C(=O)COc3ccc(S(=O)(=O)N4CCC(C)CC4)cc32)cc1 -25.2%
CCN1CCN(C(c2cccc(Cl)c2)c2c(O)cc(C)n(CCOC)c2=O)CC1 (centres undefined) -2.29%
Cc1cc(OCC(=O)NCC2(N(C)C)CCCCC2)cc(C)c1Cl -3.56%
COc1cccc(C2=NS(=O)(=O)N(C)C(C(=O)Nc3cccc(O)c3)=C2)c1 -23.3%
Cc1ccc(-c2nnc(SCC(=O)NCCC(C)C)nc2-c2ccc(C)cc2)cc1 -36.5%
CCn1cc(C(=O)NCCCN(CC(C)C)CC(C)C)c(=O)c2cc(S(=O)(=O)N3CCc4ccccc4C3)ccc21 -5.33%
Cc1cc(NC(=O)C2CCCN(S(=O)(=O)c3ccc(Br)s3)C2)ccc1Br (centres undefined) -31%
COc1ccc(CC(=O)Nc2ccc(-c3nc4ccccc4s3)cc2Cl)cc1 -13.7%
O=C(NCc1ccccc1)C(=O)NCC(c1ccco1)S(=O)(=O)c1ccccc1 (centres undefined) -10.8%
COc1ccc(N2CCN(C(CNC(=O)C(=O)NCc3ccc(F)cc3)c3cccnc3)CC2)cc1 (centres undefined) -16.8%
N=C1SC(=Cc2ccc(-c3ccc4c(c3)C(=O)NC4=O)o2)C(=O)N1c1ccc(Br)cc1 2.04%
CCCCN1C(=O)C(O)(c2c(C)[nH]c3ccccc23)c2cc(Br)ccc21 (centres undefined) -26.9%
CCCN(CCC)c1nn2c(=O)c(C(=O)NCc3cccc(OC)c3)cnc2s1 -23.1%
Oc1ccc(C2CNCCc3c2cc(O)c(O)c3Cl)cc1 (centres undefined)
Cc1ccccc1NC(=O)Cn1c(=O)n(CCCCC(=O)NCc2ccccc2Cl)c(=O)c2ccccc21 -15.7%
O=C(CN1C(=O)COc2ccc(S(=O)(=O)Nc3ccccc3)cc21)NCc1ccccc1Cl -10.6%
CCOC(=O)c1c(S(=O)(=O)N2CCC(C(=O)Nc3cccc(C#N)c3)CC2)c(C)n(C)c1C 2.62%
Cc1c(C(=O)OC2CCCCCC2)[nH]c2c1C(=O)CC(c1ccccc1Cl)C2 (centres undefined) -33.6%
CCN(CC)S(=O)(=O)c1ccc(C(=O)NC2CC(=O)N(c3ccc4c(c3)OCCO4)C2)cc1 (centres undefined) -11.3%
CCOC(=O)c1ccc(N2C(=O)c3[nH]nc(-c4ccccc4)c3C2c2cccs2)cc1 (centres undefined) -62.8%
COc1ccc(CCNc2nc(SCc3ccccc3Cl)nc3ccccc23)cc1OC -6.31%
O=C(CSc1nc2c(c(=O)[nH]1)CN(Cc1ccc(F)cc1)CC2)Nc1cccc(C(F)(F)F)c1 -38.9%
Cc1cc(C)nc(-n2nc(C)c3c2NC(=O)CC3c2ccccc2OC(C)C)n1 (centres undefined) -23.5%
COc1ccc(NC(=O)Cn2c(=O)n(CCc3ccccc3)c(=O)c3sc4ccccc4c32)cc1 26.6%
CCC1CN(C(=O)NCc2cccc(OC)c2)c2ccccc2O1 (centres undefined) -12.7%
COc1ccc(-c2[nH]c(-c3ccccc3)nc2SCC(=O)NC2CCCC2)cc1 -22.5%
COc1ccc(CCNC(=O)c2cc3c(=O)n(C)c4cc(Cl)ccc4c3s2)cc1OC -15.7%
COc1ccc(-c2cc(NCc3ccc(C)cc3)n3cnnc3n2)cc1 -31.5%
CCN1C(=O)c2ccccc2Sc2ccc(NC(=O)Nc3ccc(Br)c(C)c3)cc21 -43.4%
O=S1(=O)c2ccccc2N(Cc2ccccc2Cl)c2ccccc21 -19%

Reference: PubChem BioAssay AID1508624 (National Center for Advancing Translational Sciences (NCATS), 2021)
